Drawing on PubChem BioAssay (Tox21), this text covers Potency for 6 compounds.

Records with an inconclusive call do not appear. Unless noted, calls follow the shape of the dose curve; as a rule, active = well fitted curve in the direction sought with a large enough effect in the repeat runs; inconclusive = weak or mixed curves; inactive = no such curve, though single readings can be large; an effect the other way counts as inactive or inconclusive. A structure can be active in one record and inactive in another. A number of entries come with more than one value. They are shown here; other results are not. The source may hold further records. The records of an entry repeat one measurement (runs, samples, wells, individuals or studies). Records carry a tag for their origin. The letters are not those of the source and start again with each entry.

Test [1] can be described thus: qHTS assay for small molecules that induce genotoxicity in human embryonic kidney cells expressing luciferase-tagged ATAD5 - cell viability (AID 651634; calls by dose curve; also: nearly all actives have a fitted effect of over 25% in size). A digest of the protocol:
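Live-cell protease activity (CellTiter-Fluor, fluorescence) indicates viability. HEK293T cells with luciferase-tagged ATAD5; 15.5 hr compound treatment at 37C.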
Background: qHTS replaces the single test concentration by a dilution series.

Test [2] can be described thus: qHTS assay to identify small molecule agonists of the constitutive androstane receptor (CAR) signaling pathway - cell viability counter screen (AID 1224836). Also: nearly all actives have a fitted effect of over 45% in size. A digest of the protocol: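 HepG2-CYP2B6-hCAR, 2500 cells/well, 4 h pre-incubation; cpd 15 conc + PK11195 0.75 uM final; 23 h, 37 C/5% CO2; CellTiter-Fluor, fluorescence.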
Test [3] is described as follows: qHTS assay to identify small molecule antagonists of the constitutive androstane receptor (CAR) signaling pathway - cell viability counter screen (AID 1224837). Also: nearly all actives have a fitted effect of over 45% in size. A digest of the protocol: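 Fluorescence from CellTiter-Fluor served as the viability signal. Human hepatoma HepG2 cells stably bearing hCAR and CYP2B6-2.2kb received compound plus CITCO (50 nM final) for 23 hr.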

Test [4] is described as follows: A CellTox Green Cytotoxicity Assay to monitor cytotoxicity in HEK293 cells - 24 hour (AID 1224875). Also: nearly all actives have a fitted effect of over 45% in size. A digest of the protocol: (§1)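 Each value comes from one timepoint of a single continuous run in which HEK293 cells with CellTox Green were exposed to compound for up to 40 h at 37 C, dye fluorescence rising with cell death.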
The nature of test [5]: A CellTox Green Cytotoxicity Assay to monitor cytotoxicity in HEK293 cells - 16 hour (AID 1224888). Also: nearly all actives have a fitted effect of over 35% in size. A digest of the protocol: as §1
Test [6] is described as follows: qHTS assay to identify small molecule antagonists of the estrogen receptor alpha (ER-alpha) signaling pathway using the BG1 cell line in the presence of 0.1 nM 17-beta-estradiol - cell viability counter screen (AID 1259241). Also: nearly all actives have a fitted effect of over 40% in size. A digest of the protocol: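 VM7Luc4E2, 4,000 cells/well, phenol red-free medium + 10% charcoal-stripped FBS; 24 hr plating; cpd + 0.1 nM E2 final, 22 hr 37C/5% CO2; CellTiter-Fluor 30 min, fluorescence.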

Test [7] can be described thus: qHTS assay to identify small molecule antagonists of the progesterone receptor (PR) signaling pathway - cell viability counter screen (AID 1346798). Also: nearly all actives have a fitted effect of over 50% in size. The source says:
National Center for Advancing Translational Sciences [NCATS]
NIH Chemical Genomics Center [NCGC]
U.S. Environmental Protection Agency [EPA]
National Institutes of Environmental Health Sciences [NIEHS]
National Toxicology Program [NTP]
U.S. Food and Drug Administration [FDA]
Progesterone receptor (PR), a nuclear hormone receptor, plays an important role in development, metabolic homeostasis and reproduction. It is activated by the steroid hormone progesterone. Endocrine disrupting chemicals (EDCs) and their interactions with steroid hormone receptors like PR causes disruption of normal endocrine function. […]
PR-UAS-bla HEK293T cells were dispensed at 3,000 cells/4 uL of assay medium containing 2% charcoal stripped FBS per well into black wall/clear-bottom 1536-well plates using a Multidrop Combi (ThermoFisher Scientific, Waltham, MA) dispenser. […] Then 1 uL of LiveBLAzer B/G FRET substrate was added using a Flying Reagent Dispenser, the plates were incubated at room temperature for 2 hours, and fluorescence intensity was measured by an Envision plate reader (PerkinElmer, Shelton, CT). For cell viability readout that measures cytotoxicity, 4 uL/well of CellTiter-Glo reagent was added into the assay plates using a FRD. After 30 min incubation at room temperature, the luminescence intensity in the plates was measured using a ViewLux (PerkinElmer) plate reader.
Potency is read from the fitted curve at half-maximal effect.

For `CN(C)C(=S)SC(=S)N(C)C`, the Potency entry in test [1] was “active: 5.59 µM [sample A] and inactive [sample B]”.
Turning to `Cc1c(C(=O)O)c(O)cc2c1C(=O)c1c(O)c([C@@H]3O[C@H](CO)[C@@H](O)[C@H](O)[C@H]3O)c(O)c(O)c1C2=O`, the Potency entry in test [2] was “active: 21.7 µM [sample A] and inactive [sample B]”; in test [3], “active: 37.6 µM [sample A] and inactive [sample B]”.
For the compound `CCCCCCc1ccc(O)cc1O`, in test [4], the Potency result was “active: 49.1 µM [sample A] and active: 49 µM [sample B] and inactive [sample C]”.
`CC1(C)O[C@@H]2C[C@H]3[C@@H]4CCC5=CC(=O)C=C[C@]5(C)[C@@]4(F)[C@@H](O)C[C@]3(C)[C@]2(C(=O)CO)O1`: the Potency result in test [4] is “inactive [sample A] and inactive [sample B] and active: 9.52 µM [sample C]”; in test [5], “inactive [sample A] and inactive [sample B] and active: 9.52 µM [sample C]”.
As to `O=c1[nH]cc(F)c(=O)[nH]1`, the Potency result in test [2] was “active: 17.9 µM [sample A] and inactive [sample B] and inactive [sample C]”; in test [3] it was “active: 20.1 µM [sample A] and inactive [sample B] and inactive [sample C]”; in test [6] it was “active: 22.5 µM [sample A] and inactive [sample B] and inactive [sample C]”; in test [7] it was “active: 17.9 µM [sample A] and inactive [sample B] and inactive [sample C]”.
With `CCCCCCCCCCCCCCCC[N+](C)(C)Cc1ccccc1`, in test [3], the Potency result was “active: 55.5 µM [sample A] and inactive [sample B]”.
